Screen size: about 45,000 compounds; about 200 (0.44%) were called active. Another 7% or so got no clear call; they are omitted. Calls follow the shape of the dose curve; as a rule, active = well fitted activation curve with a large enough effect; inconclusive = small, poorly fitted or top-dose-only effect; inactive = no such curve, though single readings can be large or run the other way. The list shows a part of the results.
experiment: qHTS of TDP-43 Inhibitors: NCGC Sytravon Library Screen; conditions: yeast TDP-43 toxicity rescue, BacTiter-Glo growth, 24 h; series mostly up to 46.1 µM; growth rescue (activation): at the top concentration; also: nearly all actives have a fitted effect of over 55% in size; as to growth rescue (activation): 0% is about no effect
How it was run: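 TDP-43-expressing yeast, pregrown in raffinose, seeded at OD600 0.02 in galactose medium with compound for 24 hr at 30 deg C. Growth read by BacTiter-Glo luminescence, so rescue of toxicity appears as activation.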
Potency is read from the fitted curve at half-maximal effect.

| Structure (SMILES) | growth rescue (activation) | Potency |
| --- | --- | --- |
| O=C(Nc1ccc(S(=O)(=O)Nc2ncccn2)cc1)c1ccc(S(=O)(=O)N2CCCC2)cc1 | inactive: -9.83% | – |
| Cn1c(=O)c2c(nc(Sc3ncnn3CC(=O)NC(C)(C)C)n2C)n(C)c1=O | inactive: -3.54% | – |
| CC(Sc1nc2scc(-c3ccccc3)c2c(=O)[nH]1)C(=O)NC(N)=O (configuration not stated) | inactive: -3.43% | – |
| O=C(CSc1nnc(-c2ccncc2)n1-c1ccccc1Cl)Nc1ccc(C(=O)O)cc1 | inactive: 2.85% | – |
| COc1ccc(Nc2ccc3c(c2)=NC2(CCCCC2)[N+]=3[O-])cc1 | inactive: 11.9% | – |
| CCCc1cc(=O)[nH]c(SCC(=O)N2CCN(c3ccccc3)CC2)n1 | inactive: 1.72% | – |
| O=C(Nc1ccccc1C(=O)Nc1ccccc1)c1ccco1 | inactive: 12.2% | – |
| CC(C)c1ccccc1NC(=O)Nc1nc(C(N)Cc2ccc(C(F)(F)F)cc2)cs1 (configuration not stated) | inactive: 11.3% | – |
| CC1=NN(c2ccccc2)C(=O)/C1=C\C=C1/N(C)c2ccccc2C1(C)C | inactive: -2.73% | – |
| Nc1ncnc2nc(SCC(=O)Nc3ccccc3F)[nH]c12 | inactive: 17% | – |
| O=C(CNS(=O)(=O)c1ccc(Cl)cc1)OCC(=O)N1CCCc2ccccc21 | inactive: 15.5% | – |
| Cc1cc(Nc2ccccc2)n(CCOC(=O)COc2ccccc2)n1 | inactive: -12.1% | – |
| CCc1ccc(CN(C)C(=O)CCc2nnc(Cc3cccc(C)c3)o2)nc1 | inactive: 8.65% | – |
| O=C(N/N=C/c1ccccn1)NC12CC3CC(CC(C3)C1)C2 | inactive: 12.6% | – |
| CN(C)S(=O)(=O)c1cccc(NC(=O)CN2C(=O)C3C4C=CC(C4)C3C2=O)c1 (configuration not stated) | inactive: 2.88% | – |
| Fc1ccc(N2Cc3ccsc3C=N2)cc1 | inactive: 6.68% | – |
| CC12CCC(=O)N1C(C(=O)OCC(=O)Nc1cc(S(=O)(=O)N3CCCCC3)ccc1Cl)CS2 (configuration not stated) | inactive: 25.6% | – |
| Cc1ccc2c(c1)sc1nc(=O)ccn12 | inactive: 4.79% | – |
| COc1ccc(S(=O)(=O)N2CCN(c3cnccn3)CC2)cc1 | inactive: 0.731% | – |
| CCNc1c(NS(=O)(=O)c2ccc(C3CCCCC3)cc2)c(=O)oc2ccccc12 | inactive: -16.6% | – |
| Cc1ccc(S(=O)(=O)Oc2cccc(/C=N/Nc3ccc(C(=O)O)cc3)c2)cc1 | inactive: 4.35% | – |
| COc1ccc(S(=O)(=O)N2CCCC2)cc1C(=O)N1CCCCC1 | inactive: -0.208% | – |

| Structure (SMILES) | growth rescue (activation) | Potency |
| --- | --- | --- |
| CCC(=O)Nc1nc(-c2ccc3c(c2)CC(C)N3S(C)(=O)=O)cs1 (configuration not stated) | inactive: 16.4% | – |
| CCc1ccccc1NC(=O)CSc1n[nH]c(-c2cccnc2)n1 | inactive: 11.6% | – |
| CCN(CC)CCN1C(=O)C(=O)/C(=C(/O)c2ccccc2)C1c1ccccc1F (configuration not stated) | inactive: -1.63% | – |
| CC1(C)OC(=O)C(=NNc2ccccc2)C(=O)O1 | inactive: -23.2% | – |
| O=C(NC1CCCC1)c1cc(-c2ccc(Cl)cc2Cl)on1 | inactive: 20.7% | – |
| CC(OC(=O)CCCC(=O)Nc1ccc(F)cc1)C(=O)c1ccccc1 (configuration not stated) | inactive: 2.46% | – |
| CC(C)CCNC(=O)c1cc2c(s1)-c1ccccc1S(=O)(=O)C2 | inactive: 5.64% | – |
| O=C1COc2ccc(C(=O)COC(=O)C3CC(O)CN3S(=O)(=O)c3ccc(Cl)cc3)cc2N1 (configuration not stated) | inactive: 17.1% | – |
| Nc1c(Cl)ncnc1N1CCCC1 | inactive: 9.8% | – |
| CCn1c(SCC(=O)NC(C)C)nnc1-c1cccs1 | inactive: -2.04% | – |
| Cc1cc(C)nc(Nc2ccc(Br)cc2C(=O)O)n1 | inactive: -2.17% | – |
| Cc1cc(/C=C(\C#N)C(=O)NCc2ccccc2)cc(C)c1O | inactive: 4.18% | – |
| Cc1cccc(/C=N\Nc2nnc(-c3ccccc3)c(=O)[nH]2)c1 | inactive: 17.7% | – |
| O=C(NCc1ccncc1)c1ccc2nc(Cc3ccccc3F)oc2c1 | inactive: 4.52% | – |
| Cc1ccccc1N1CCN(Cc2nc(Cc3ccccc3F)no2)CC1 | inactive: 30.1% | – |
| O=C(O)c1cccc(-n2c(/C=C/c3ccccc3)nc3ccccc3c2=O)c1 | inactive: -17.3% | – |
| Cc1ccc(NC2c3ccccc3C(=O)N2c2cccnc2)cc1 (configuration not stated) | inactive: 33.8% | – |
| CCN(CC)C(=S)NC(=O)c1cccnc1 | inactive: -7.55% | – |
| CCOc1ccccc1NC(=O)CSC1=NN2CCCC(=O)N=C2S1 | inactive: 16.2% | – |
| COc1ccccc1N1CCN(C2CCCN(C(=O)c3ccoc3C)C2)CC1 (configuration not stated) | inactive: -13.1% | – |
| Cc1ccc(OCCN2C(=O)S/C(=C\c3ccc(C)o3)C2=O)cc1 | inactive: -5.35% | – |
| COc1cccc(-c2noc(Cn3nc(C(=O)O)c4ccccc4c3=O)n2)c1 | inactive: 5.37% | – |

| Structure (SMILES) | growth rescue (activation) | Potency |
| --- | --- | --- |
| CNC(=O)/C(C#N)=C1/SC(Cc2ccc(F)cc2)C(=O)N1c1ccccc1 (configuration not stated) | inactive: 5.62% | – |
| O=C(NNC(=O)C1CCN(c2ncccn2)CC1)c1ccncc1 | inactive: -2.84% | – |
| COc1ccc(NC(=O)c2cc(C3CCCCN3C(=O)c3cc(C(C)(C)C)nn3C)on2)c(C)c1 (configuration not stated) | inactive: 13.3% | – |
| Cc1cccc2sc(NC(=O)C3CCN(C(=O)c4ccco4)CC3)nc12 | inactive: 26.2% | – |
| Cc1nn(-c2ccccc2)c(Cl)c1/C=N/N1CCN(c2ccccn2)CC1 | inactive: 5.39% | – |
| O=C(O)/C(=C\c1cccs1)c1ccccc1 | inactive: 11.5% | – |
| CCc1ccc(N(C(=O)Cn2nnc(-c3ccccc3)n2)C(C(=O)NC2CCCCC2)c2ccccn2)cc1 (configuration not stated) | inactive: -3.69% | – |
| Cc1ccccc1NC(=O)c1cccc(S(C)(=O)=O)c1 | inactive: 7.8% | – |
| Cc1ccc(N(Cc2ccc(C(=O)Nc3c(C)n(C)n(-c4ccccc4)c3=O)cc2)S(C)(=O)=O)cc1C | inactive: -1.91% | – |
| Cc1cccc(NS(=O)(=O)c2cc(Cl)ccc2Cl)n1 | inactive: 3.08% | – |
| CC(=O)c1cccc(NC(=O)Cc2coc3cc4c(cc23)CCC4)c1 | inactive: -19.6% | – |
| CSCCC(NC(=O)c1occc1C)C(=O)O (configuration not stated) | inactive: -13.6% | – |
| O=C(NC(=S)NCCO)c1cn(-c2ccccc2)nc1-c1ccccc1 | inactive: 4.45% | – |
| COc1ccc2cc(C(=O)C3CCCN(C(=O)c4csnn4)C3)ccc2c1 (configuration not stated) | inactive: 21.8% | – |
| O=C(Nc1ccc(C(F)(F)F)cc1)c1ccc2nc[nH]c2c1 | inactive: 7.64% | – |
| COc1ccc(-c2c(-c3ccc(OCC(=O)NN)cc3O)n[nH]c2C)cc1OC | inactive: 16.5% | – |
| CCOc1ccc(Cl)cc1-c1cc(C(=O)Nc2ccc(OC)cc2OC)[nH]n1 | inactive: 15.9% | – |
| CC(C)CC(=O)NC(c1cccs1)c1ccc2cccnc2c1O (configuration not stated) | inactive: 20.4% | – |
| Cc1nn(CCCC(=O)Nc2cccnc2)c(C)c1[N+](=O)[O-] | inactive: 10.5% | – |
| CC(C)n1nc(C(=O)Nc2nc3ccccc3[nH]2)c2ccccc2c1=O | inactive: 16.4% | – |
| CCCNC(=O)c1cc(C2CCCCN2C(=O)CCc2ccccc2)on1 (configuration not stated) | inactive: 10.9% | – |
| Cc1ccc(NC(=O)CN2C(=O)C3CCCCN3C(=O)c3ccccc32)cc1 (configuration not stated) | inactive: 7.02% | – |

| Structure (SMILES) | growth rescue (activation) | Potency |
| --- | --- | --- |
| COC(=O)C(Cc1ccccc1)NC(=O)CCNC(=O)c1ccc(Br)cc1 (configuration not stated) | inactive: -1.27% | – |
| Cc1ccsc1C(=O)N1CCCC1(C)C(=O)NCC(C)C (configuration not stated) | inactive: 5.66% | – |
| COc1ccc([N+](=O)[O-])cc1N(CC(O)CN1C(=O)NC(C)(C)C1=O)S(=O)(=O)c1ccccc1 (configuration not stated) | inactive: 2.17% | – |
| COCCNC(=O)C1CCCN(Cc2cccc(C(F)(F)F)c2)CC1 (configuration not stated) | inactive: 7.19% | – |
| CCCOCc1ccc(O)c2ncccc12 | inactive: 0.242% | – |
| O=C(COC(=O)C1CCN(S(=O)(=O)c2cccs2)CC1)NCc1ccccc1 | inactive: -0.0251% | – |
| COc1ccc(Cn2c(O)c(C=Nc3ccc(OC)cc3)c3ccccc3c2=O)cc1 | inactive: 12.6% | – |
| CCC(=O)N(CCC(c1ccc(C)cc1)c1ccco1)Cc1ccco1 (configuration not stated) | inactive: 21.8% | – |
| O=c1c2c([nH]c3ccccc13)CCCC2 | inactive: -22% | – |
| Cc1cc(C)c(N(CC(=O)NCc2ccccc2)C(=O)c2csnn2)c(C)c1 | inactive: -2.97% | – |
| CC(C)N(CC(O)COc1ccc(CC(N)=O)cc1)CC(O)COc1ccc(CC(N)=O)cc1 (configuration not stated) | inactive: -22.3% | – |
| O=S(=O)(NCCC(c1ccc(F)cc1)c1ccco1)c1ccccc1 (configuration not stated) | – | active: 17.8 µM |
| N#Cc1nc(-c2ccc([N+](=O)[O-])cc2)oc1N1CCCCC1 | inactive: 7.05% | – |
| NC(=O)c1nsc(C(=O)N(CC(=O)NCc2ccccc2)c2ccc(F)cc2)c1N | inactive: -5.6% | – |
| O=C(NC1CCCC1)C(c1cccnc1)N(C(=O)c1ccco1)c1cccc(F)c1 (configuration not stated) | inactive: 9.92% | – |
| N#Cc1c(-c2ccc(F)cc2)ccnc1N1CCOCC1 | inactive: 23.2% | – |
| COc1cccc(N2C(=O)C3CCCN3C2c2cccs2)c1 (configuration not stated) | inactive: -8.22% | – |
| O=C(/C=C/c1ccco1)NC(=S)Nc1ccc(C(=O)O)cc1 | inactive: 13.7% | – |
| Cc1nn(-c2ccccc2)c(N)c1N=Nc1cccc(S(=O)(=O)N2CCOCC2)c1 | inactive: 27.9% | – |
| Fc1ccccc1C1CCN(Cc2nc(CC3CC3)no2)C1 (configuration not stated) | inactive: -1.54% | – |
| N#C/C(=C\c1cn(Cc2ccc(C#N)cc2)c2ccccc12)C(=O)NCc1cccs1 | inactive: 10.7% | – |
| CNCC(O)CN1CCN(c2ccccc2OC)CC1 (configuration not stated) | inactive: -12.4% | – |

| Structure (SMILES) | growth rescue (activation) | Potency |
| --- | --- | --- |
| O=C(CSc1nnnn1-c1ccc(C(=O)O)cc1)NC1CCCCC1 | inactive: 4.26% | – |
| Cc1nn(-c2ccccc2)c(Cl)c1C(=O)NCc1ccccc1F | inactive: 2.83% | – |
| Cn1c(SCC(=O)NCCc2ccccc2)nnc1C1CCCCC1 | inactive: 5.83% | – |
| O=C(Nc1ccccc1-c1nnc(SCc2ccc(Cl)cc2Cl)o1)c1ccccc1 | inactive: -5.2% | – |
| COc1ccc(CC(=O)NCc2nnc(SCc3ccc([N+](=O)[O-])cc3)n2C)cc1 | inactive: 10.1% | – |
| O=C(OCC(=O)N(Cc1ccccc1)C1CCS(=O)(=O)C1)c1cc2c(s1)CCCC2 (configuration not stated) | inactive: -2.86% | – |
| COc1ccc(N2C(=O)CSC2c2ccc(F)c(F)c2)cc1 (configuration not stated) | inactive: 3.33% | – |
| CCN(CC(=O)Nc1cc(C)nn1-c1nc(C)cc(C)n1)Cc1ccccc1 | inactive: -7.31% | – |
| CN(C)S(=O)(=O)c1cc(NC(=O)COC(=O)c2ccc3c(c2)OCO3)ccc1Cl | inactive: -5.68% | – |
| COc1ccc(Cl)cc1N(CC(=O)NC1CC1)S(=O)(=O)c1ccc(C)c([N+](=O)[O-])c1 | inactive: 9.73% | – |
| Brc1ccccc1-c1nnc(COc2ncnc3ccccc23)o1 | inactive: -7.25% | – |
| O=C(NCC1COc2ccccc2O1)c1cccc(S(=O)(=O)N2CCOCC2)c1 (configuration not stated) | inactive: 11.6% | – |
| COc1ccc(CN(C)CC(O)COC(c2ccc(OC)cc2)c2ccc(OC)cc2)cc1 (configuration not stated) | inactive: 5.5% | – |
| Cc1c(OCC(=O)N(C)C)ccc2c(-c3ccccc3)cc(=O)oc12 | inactive: 11.1% | – |
| N#C/C(=C(/O)CCl)c1nc(-c2ccccc2)cs1 | inactive: 22.2% | – |
| O=C(O)CCCCCn1c(SCC(=O)Nc2ccc(F)cc2)nc2ccsc2c1=O | inactive: -4.27% | – |
| CC[n+]1ccc(C)c2cc(SC(F)(F)F)ccc21 | inactive: 2.77% | – |
| COCCCNc1ccn2nc(-c3cc(OC)c(OC)c(OC)c3)cc2n1 | inactive: 8.39% | – |
| CC(=O)c1ccc(OCC(O)CN2CCc3ccccc3C2)cc1 (configuration not stated) | inactive: -0.584% | – |

— PubChem BioAssay AID1347073 (National Center for Advancing Translational Sciences (NCATS), 2019)
